In paper PMC6705773:
Results are given in words; binding and its absence hold for the method and conditions named. For some of these results: In cells and extracts the contact can be indirect. Some entries that bind do so weakly or less than the wild type. For some of these results: Where a sequence is shown, tags or fusion partners need not be part of it.

T1: FtsX (B. subtilis (endogenous in PY79)) (UniProt O34876)
T1 sequence: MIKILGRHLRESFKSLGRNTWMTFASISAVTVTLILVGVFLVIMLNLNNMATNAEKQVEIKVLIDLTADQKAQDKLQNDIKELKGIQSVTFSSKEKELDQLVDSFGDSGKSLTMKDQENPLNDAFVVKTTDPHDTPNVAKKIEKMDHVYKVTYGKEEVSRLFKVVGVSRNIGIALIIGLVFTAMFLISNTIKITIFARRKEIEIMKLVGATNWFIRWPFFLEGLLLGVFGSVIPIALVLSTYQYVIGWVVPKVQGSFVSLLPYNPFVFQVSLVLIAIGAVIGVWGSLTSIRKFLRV

T2: FtsX fused to the T18 or T25 domain of Bordetella adenylate cyclase (B. subtilis) (UniProt O34876)
T2 sequence: T1 sequence

T3: full-length SweD fused to the T18 or T25 domain of Bordetella adenylate cyclase (B. subtilis) (UniProt O32022)
T3 sequence: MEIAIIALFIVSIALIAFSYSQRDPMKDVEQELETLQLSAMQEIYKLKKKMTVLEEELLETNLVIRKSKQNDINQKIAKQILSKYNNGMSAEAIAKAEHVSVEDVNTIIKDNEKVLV

B1: SweD (protein, UniProt O32022 1-117)
chain: T3 sequence
B2: FtsE fused to the T18 or T25 domain of Bordetella adenylate cyclase (protein, UniProt O34814 1-228)
chain: MIEMKEVYKAYPNGVKALNGISVTIHPGEFVYVVGPSGAGKSTFIKMIYREEKPTKGQILINHKDLATIKEKEIPFVRRKIGVVFQDFKLLPKLTVFENVAFALEVIGEQPSVIKKRVLEVLDLVQLKHKARQFPDQLSGGEQQRVSIARSIVNNPDVVIADEPTGNLDPDTSWEVMKTLEEINNRGTTVVMATHNKEIVNTMKKRVIAIEDGIIVRDESRGEYGSYD
B3: full-length SweD fused to the T18 or T25 domain of Bordetella adenylate cyclase (protein, UniProt O32022 1-117)
chain: T3 sequence
B4: WalI (YycI) (protein, UniProt Q45612 1-280)
chain: MEWNKTKSIFIVAFLILDIFLGYQFFQKWQATGKEYEVIKNDVEHDMKADHITYEGLNKEATEGYRITANQKSFSKEEIEALKDQKPLMDMPSDDHKVTSLKMKFANPIALSKKDIEDDAQALVSSKIQDGEKYKLWKVDKSKKEIIFFQTYEGHYIYQKTDNPSNMIGQVVLHLNGKNEVVSYDQTTLETFKQIQKESLITEMDAVELLYYQNQLKEYSTVKSCKFGYVAQYPLTSTQVLAPVWRITVEYEKKVNGEKKTVQEYFTVNALESTILDTDQ
B5: SweC fused to the T18 or T25 domain of Bordetella adenylate cyclase (protein, UniProt O32023 1-154)
chain: MTKRGIQAFAGGIILATAVLAAVFYLTDEDQAAAVKDNKTVTEQDVNNYLDSKKLVSVNRDEYQKLLDSKEKSLNNDSGSDTKSDKVKTYKLTIKDGMSTADVSAILEKEGIISSAQDFNDYVIDAGYHKEIRAGEFKVKSDMSFKKIVKTLTR
B6: Mbl, bacterial two-hybrid fusion (protein, UniProt P39751 1-333)
chain: MFARDIGIDLGTANVLIHVKGKGIVLNEPSVVALDKNSGKVLAVGEEARRMVGRTPGNIVAIRPLKDGVIADFEVTEAMLKHFINKLNVKGLFSKPRMLICCPTNITSVEQKAIKEAAEKSGGKHVYLEEEPKVAAIGAGMEIFQPSGNMVVDIGGGTTDIAVISMGDIVTSSSIKMAGDKFDMEILNYIKREYKLLIGERTAEDIKIKVATVFPDARHEEISIRGRDMVSGLPRTITVNSKEVEEALRESVAVIVQAAKQVLERTPPELSADIIDRGVIITGGGALLNGLDQLLAEELKVPVLVAENPMDCVAIGTGVMLDNMDKLPKRKLS

How the values were obtained:
[1] = biological target: T1, FtsX (B. subtilis (endogenous in PY79)); test: co-IP; anti-FtsX antiserum and Protein A Sepharose on 0.5% digitonin-solubilized membrane fractions of exponentially growing B. subtilis wild type (PY79), ΔftsX mutant as control; 4°C; Buffer S (20 mM Hepes pH 8, 200 mM NaCl, 1 mM DTT, 20% glycerol) + 0.5% digitonin; immunoblot
[2] = biological target: T2, FtsX fused to the T18 or T25 domain of Bordetella adenylate cyclase (B. subtilis); test: two-hybrid; bacterial adenylate cyclase two-hybrid (BACTH); T18 and T25 fusions co-transformed into E. coli BTH101; spotted on LB agar with IPTG (0.25 mM) and X-Gal, 30°C, 16 hours
[3] = biological target: T3, full-length SweD fused to the T18 or T25 domain of Bordetella adenylate cyclase (B. subtilis); test: as above

binding [1]	binding [2]	binding [3]	Binder
binds	–	–	B1
–	binds	–	B2
–	binds	binds	B3
no binding	–	–	B4
–	–	no binding	B5
–	–	no binding	B6
